About 14,000 (4.5%) of roughly 310,000 compounds showed an effect of 50% or more. Effects have a minus sign here. The list shows a part of the results.
Molecular target: human ether-à-go-go-related gene (hERG) potassium channel (human, UniProt Q12809)
Assay: primary screen, population patch clamp on CHO cells stably expressing hERG
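Also: peak tail current of the secondary pulse compared with the same well before compound.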

Sequence of human ether-à-go-go-related gene (hERG) potassium channel (Q12809 whole entry, looked up): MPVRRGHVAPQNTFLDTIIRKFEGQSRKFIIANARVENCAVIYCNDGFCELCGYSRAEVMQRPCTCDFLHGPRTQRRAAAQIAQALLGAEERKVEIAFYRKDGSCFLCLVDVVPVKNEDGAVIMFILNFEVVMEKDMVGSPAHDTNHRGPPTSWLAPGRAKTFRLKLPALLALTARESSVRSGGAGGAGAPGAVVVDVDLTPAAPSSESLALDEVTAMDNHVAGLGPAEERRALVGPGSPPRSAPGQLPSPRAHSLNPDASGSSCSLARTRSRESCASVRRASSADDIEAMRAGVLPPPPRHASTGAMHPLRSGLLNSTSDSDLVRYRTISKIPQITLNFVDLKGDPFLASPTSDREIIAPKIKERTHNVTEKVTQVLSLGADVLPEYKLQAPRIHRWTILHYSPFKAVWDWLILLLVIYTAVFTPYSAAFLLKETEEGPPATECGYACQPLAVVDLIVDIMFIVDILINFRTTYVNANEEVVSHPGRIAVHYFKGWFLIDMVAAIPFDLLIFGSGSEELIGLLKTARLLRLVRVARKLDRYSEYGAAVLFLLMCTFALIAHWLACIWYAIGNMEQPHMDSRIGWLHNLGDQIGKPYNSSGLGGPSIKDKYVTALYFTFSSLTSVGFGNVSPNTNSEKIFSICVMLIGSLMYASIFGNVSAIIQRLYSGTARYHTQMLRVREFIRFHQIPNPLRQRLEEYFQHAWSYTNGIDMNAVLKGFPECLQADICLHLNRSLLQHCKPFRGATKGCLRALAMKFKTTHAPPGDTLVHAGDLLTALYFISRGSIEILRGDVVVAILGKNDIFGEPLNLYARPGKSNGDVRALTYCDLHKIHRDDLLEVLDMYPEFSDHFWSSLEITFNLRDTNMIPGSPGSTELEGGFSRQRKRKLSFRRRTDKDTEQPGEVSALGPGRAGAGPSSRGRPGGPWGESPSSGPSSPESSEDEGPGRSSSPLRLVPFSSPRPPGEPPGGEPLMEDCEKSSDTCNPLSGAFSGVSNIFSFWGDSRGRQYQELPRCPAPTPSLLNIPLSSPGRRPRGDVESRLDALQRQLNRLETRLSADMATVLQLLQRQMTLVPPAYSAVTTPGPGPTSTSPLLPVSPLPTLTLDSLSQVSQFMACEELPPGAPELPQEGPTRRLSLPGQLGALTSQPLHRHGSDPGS

| SMILES | hERG current change (%, negative = inhibition) at 10uM [%] |
| --- | --- |
| CCN(CC(=O)Nc1ccc2c(c1)OCCO2)C(=O)COc1cc(C)ccc1Cl | 1.86 |
| COc1cc2cc(CN(CCCN3CCOCC3)C(=O)Nc3ccccc3F)c(=O)[nH]c2cc1OC | 34.6 |
| O=C(c1ccccc1Cl)N1CCN(S(=O)(=O)N2CCCCC2)CC1 | 8.16 |
| O=S(=O)(NCCOCCNS(=O)(=O)c1ccccc1)c1ccccc1 | 14.7 |
| CC(=O)CC(c1ccccc1)S(=O)(=O)c1ccc(C)cc1 (stereo not drawn) | 5.81 |
| O=C(CCCc1ccccc1)NCCc1cnc[nH]1 | 21.9 |
| Clc1nc2c(-c3ccccc3)nnn2c2ccccc12 | -3.03 |
| Cc1cccc(OCCCSc2nc3ccc(C)cc3[nH]2)c1 | 16.8 |
| Cc1ccc(C(=O)N/N=C\c2ccc[nH]2)cc1[N+](=O)[O-] | 8.33 |
| COc1ccc(C(C#N)C2(C)OCCO2)cc1OC (stereo not drawn) | -4.08 |
| CN(C)C(CNC(=S)Nc1ccccc1)c1cccnc1 (stereo not drawn) | 10.7 |
| CC(CC(=O)Nc1cc(S(=O)(=O)N2CCOCC2)ccc1OCC(F)(F)F)c1ccccc1 (stereo not drawn) | -50.2 |
| Cc1ccc(C(O)CN2C3=NCCCN3c3ccccc32)cc1.Cl (stereo not drawn) | -67.4 |
| Cn1nc([N+](=O)[O-])nc1Oc1ccc2ccccc2c1 | -4.26 |
| O=C(COC(=O)CCN1C(=O)c2cccc([N+](=O)[O-])c2C1=O)NC1CCS(=O)(=O)C1 (stereo not drawn) | 16.5 |
| Cc1ccccc1NC(=S)NC(=O)Cc1ccc(Cl)cc1 | 5.08 |
| COc1ccc(NC(=O)c2ccc(COCC(F)(F)F)cc2)cc1OC | 6.9 |
| CN(CC(=O)NCCC1=CCCCC1)S(=O)(=O)c1ccc2c(c1)c(=O)n(C)c(=O)n2C | -64.9 |
| Cc1c(S(=O)(=O)N2CCOCC2)c(=O)n(C)c(=O)n1C | -0.466 |
| CC(/C=N/NC(=O)Cc1cc(=O)[nH][nH]1)=C\c1ccccc1 | 10.5 |
| c1ccc(CC2CCN(c3nc4ccccc4n4nnnc34)CC2)cc1 | 8.23 |
| Cc1onc(-c2ccccc2)c1C(=O)N1CCCC(C(F)(F)F)C1 (stereo not drawn) | -17.7 |
| O=C(C1CCC(=O)N1Cc1cccnc1)N1CCN(c2ccc(F)cc2)CC1 (stereo not drawn) | -2.7 |
| Cc1ccc(S(C)(=O)=O)cc1C(=O)OCC(=O)N(Cc1ccccc1)Cc1ccccc1 | -13.7 |
| CC1CC1C(=O)Nc1cc(S(=O)(=O)N2CCOCC2)ccc1N1CCCC1 (stereo not drawn) | -12.8 |
| O=C(CN1C(=O)NC2(CCCC2)C1=O)OCc1ccc(Br)cc1 | 8.87 |
| Cc1ccc(/C=C/C(=O)NC(=S)Nc2ccccc2C(=O)NC2CCCCC2)cc1 | 16.8 |

| SMILES | hERG current change (%, negative = inhibition) at 10uM [%] |
| --- | --- |
| CCCCc1ccc(NC(=S)NCCc2ccc(F)cc2)cc1 | -7.58 |
| CC(Oc1cc2oc(=O)c3c(c2cc1Cl)CCC3)C(=O)NCCCn1ccnc1 (stereo not drawn) | -30.7 |
| CCCCCCN(C(=O)CCCCCN1C(=O)NC(c2ccc(-c3ccccc3)cc2)C(C(=O)OCc2ccccc2)=C1C)C(C(=O)NCCCC)c1ccc(OCC(=O)OC)cc1 (stereo not drawn) | 18.9 |
| COc1ccc(-c2cc(C(=O)NCC3CCCO3)c3cc(C(C)C)ccc3n2)cc1 (stereo not drawn) | 7.63 |
| COc1ccccc1C(=O)N(CCN(C)C)c1nc2cc(C)cc(C)c2s1.Cl | -82 |
| COCCNc1ncnc2c1cnn2-c1ccc(Cl)cc1 | -19 |
| N#Cc1cn(OCc2ccccc2)c(=O)[nH]c1=O | 16.5 |
| O=C(COC(=O)COc1ccccc1)NC12CC3CC(CC(C3)C1)C2 | 0.601 |
| Cc1nc2ccc(S(=O)(=O)NCC(=O)NC(C)c3ccccc3)cc2s1 (stereo not drawn) | 21.1 |
| Clc1ccc(-c2ccc(-c3nn4c(-c5ccco5)nnc4s3)o2)cc1 | 0.523 |
| CCCn1c(CCC(=O)Nc2ccccc2Cc2ccccc2)nc2cc(S(=O)(=O)N3CCOCC3)ccc21 | -8.86 |
| Cc1cccn2c(=O)c3cc(C(=O)NCC4CCCO4)c(=N)n(C4CCCCC4)c3nc12 (stereo not drawn) | -77.3 |
| Br.Fc1cccc(CNCC2CCCO2)c1 (stereo not drawn) | 19.2 |
| Cc1cccn2c(=O)c3cc(C(=O)NCC4CCCO4)c(=N)n(CCc4ccccc4)c3nc12 (stereo not drawn) | -76.7 |
| COc1ccc(/C=C/C(=O)c2ccc[nH]2)c(OC)c1OC | -4.89 |
| OC(CNCC1COc2ccccc2O1)COc1ccccc1F (stereo not drawn) | 1.11 |
| Cc1cc(C)c(NC(=O)c2ccc(S(=O)(=O)N3CCOCC3)cc2)c(C)c1 | 3.06 |
| Cc1cccc(N(CC(=O)NC2CCCC2)C(=O)c2csnn2)c1C | 19.5 |
| CCc1nnc(NS(=O)(=O)c2ccc(NC(=O)/C=C/c3ccccc3Cl)cc2)s1 | -9.83 |
| Cl.O=C1CC2(CCCC2)CC(=O)N1CCCCN1CCN(c2ncccn2)CC1 | -35.9 |
| Cc1ccc(CS(=O)(=O)Cc2ccc(C(=O)NCc3ccco3)o2)cc1 | -32.6 |
| O=C(Nc1ccc2c(c1)CCC2)c1cc(S(=O)(=O)N2CCN(c3ccccc3)CC2)ccc1Cl | -13.9 |
| Cc1c(NC(=O)CSc2ccc(Cl)cc2)cccc1-c1nc2cc(Cl)ccc2o1 | 4.73 |
| CCOC(=O)N1CCN(CC(O)COc2ccc(-c3ccccc3)cc2)CC1.Cl (stereo not drawn) | -60.3 |
| CCOC(=O)C1CCCN(Cc2cccc(Cl)c2)C1 (stereo not drawn) | -8.02 |
| O=C(O)CN(c1ccc2c(c1)OCCO2)S(=O)(=O)c1ccccc1 | -0.421 |
| COc1cccc(OC)c1NC(=O)CN(C)S(=O)(=O)c1ccc2c(c1)OCCO2 | -5.31 |

Source: PMC4336329 (PLoS ONE, 2015)
